Laboratory results taken from the supplement of paper PMC11876631.
± gives the standard deviation of the averaged measurements. Laboratory Escherichia coli strains with one amino-acid change in an essential protein, pooled on minimal glucose agar with carbenicillin or gentamicin at twice the control MIC (plus kanamycin and chloramphenicol for the plasmids), 48 h. Fold change of barcode share against drug-free plates; higher = less susceptible. Active = above 20 in both replicates (the paper's putatively resistant). '<' = one read or none on drug, '>' = one read or none on a drug-free plate. Shares are relative, so most strains fall below 1 when a few take over. Listed are strains with at least 15 reads on both drug-free plates, and hits; most hits rest on fewer reference reads. Replicate rank correlation about 0.5. Edits are read from barcodes.

Target: Escherichia coli (laboratory strain)
Experiment: barcode share on antibiotic plates over drug-free plates; higher = less susceptible
Description: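 A pool of E. coli strains, each edited to carry one amino-acid change in an essential protein, was grown for 48 h on minimal glucose agar with or without antibiotic; strain barcodes were sequenced; mean of two replicates.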

[1] = antibiotic: carbenicillin, 2× MIC (3.1 µg/mL)
[2] = antibiotic: gentamicin, 2× MIC (MIC 0.45 µg/mL)

B1: trmD L67A (protein)
chain: MWIGIISLFPEMFRAITDYGVTGRAVKNGLLSIQSWSPRDFTHDRHRTVDDRPYGGGPGMLMMVQPARDAIHAAKAAAGEGAKVIYLSPQGRKLDQAGVSELATNQKLILVCGRYEGIDERVIQTEIDEEWSIGDYVLSGGELPAMTLIDSVSRFIPGVLGHEASATEDSFAEGLLDCPHYTRPEVLEGMEVPPVLLSGNHAEIRRWRLKQSLGRTWLRRPELLENLALTEEQARLLAEFKTEHAQQQHKHDGMA
fold change of barcode share [1]: 0.321 ± 0.16
fold change of barcode share [2]: 0.00439 ± 0.0018

B2: trmD L110A (protein)
chain: MWIGIISLFPEMFRAITDYGVTGRAVKNGLLSIQSWSPRDFTHDRHRTVDDRPYGGGPGMLMMVQPLRDAIHAAKAAAGEGAKVIYLSPQGRKLDQAGVSELATNQKLIAVCGRYEGIDERVIQTEIDEEWSIGDYVLSGGELPAMTLIDSVSRFIPGVLGHEASATEDSFAEGLLDCPHYTRPEVLEGMEVPPVLLSGNHAEIRRWRLKQSLGRTWLRRPELLENLALTEEQARLLAEFKTEHAQQQHKHDGMA
fold change of barcode share [1]: 0.359 ± 0.12
fold change of barcode share [2]: < 0.00851

B3: trmD I71W (protein)
chain: MWIGIISLFPEMFRAITDYGVTGRAVKNGLLSIQSWSPRDFTHDRHRTVDDRPYGGGPGMLMMVQPLRDAWHAAKAAAGEGAKVIYLSPQGRKLDQAGVSELATNQKLILVCGRYEGIDERVIQTEIDEEWSIGDYVLSGGELPAMTLIDSVSRFIPGVLGHEASATEDSFAEGLLDCPHYTRPEVLEGMEVPPVLLSGNHAEIRRWRLKQSLGRTWLRRPELLENLALTEEQARLLAEFKTEHAQQQHKHDGMA
fold change of barcode share [1]: 0.342 ± 0.067
fold change of barcode share [2]: 0.00668 ± 0.004

B4: trmD L213Q (protein)
chain: MWIGIISLFPEMFRAITDYGVTGRAVKNGLLSIQSWSPRDFTHDRHRTVDDRPYGGGPGMLMMVQPLRDAIHAAKAAAGEGAKVIYLSPQGRKLDQAGVSELATNQKLILVCGRYEGIDERVIQTEIDEEWSIGDYVLSGGELPAMTLIDSVSRFIPGVLGHEASATEDSFAEGLLDCPHYTRPEVLEGMEVPPVLLSGNHAEIRRWRLKQSQGRTWLRRPELLENLALTEEQARLLAEFKTEHAQQQHKHDGMA
fold change of barcode share [1]: 0.253 ± 0.054
fold change of barcode share [2]: < 0.00896

B5: trmD I71Q (protein)
chain: MWIGIISLFPEMFRAITDYGVTGRAVKNGLLSIQSWSPRDFTHDRHRTVDDRPYGGGPGMLMMVQPLRDAQHAAKAAAGEGAKVIYLSPQGRKLDQAGVSELATNQKLILVCGRYEGIDERVIQTEIDEEWSIGDYVLSGGELPAMTLIDSVSRFIPGVLGHEASATEDSFAEGLLDCPHYTRPEVLEGMEVPPVLLSGNHAEIRRWRLKQSLGRTWLRRPELLENLALTEEQARLLAEFKTEHAQQQHKHDGMA
fold change of barcode share [1]: 0.371 ± 0.093

B6: trmD I71P (protein)
chain: MWIGIISLFPEMFRAITDYGVTGRAVKNGLLSIQSWSPRDFTHDRHRTVDDRPYGGGPGMLMMVQPLRDAPHAAKAAAGEGAKVIYLSPQGRKLDQAGVSELATNQKLILVCGRYEGIDERVIQTEIDEEWSIGDYVLSGGELPAMTLIDSVSRFIPGVLGHEASATEDSFAEGLLDCPHYTRPEVLEGMEVPPVLLSGNHAEIRRWRLKQSLGRTWLRRPELLENLALTEEQARLLAEFKTEHAQQQHKHDGMA
fold change of barcode share [1]: 0.145 ± 0.11
fold change of barcode share [2]: < 0.0145

B7: trmD L67Q (protein)
chain: MWIGIISLFPEMFRAITDYGVTGRAVKNGLLSIQSWSPRDFTHDRHRTVDDRPYGGGPGMLMMVQPQRDAIHAAKAAAGEGAKVIYLSPQGRKLDQAGVSELATNQKLILVCGRYEGIDERVIQTEIDEEWSIGDYVLSGGELPAMTLIDSVSRFIPGVLGHEASATEDSFAEGLLDCPHYTRPEVLEGMEVPPVLLSGNHAEIRRWRLKQSLGRTWLRRPELLENLALTEEQARLLAEFKTEHAQQQHKHDGMA
fold change of barcode share [1]: 0.274 ± 0.062
fold change of barcode share [2]: 0.00823 ± 0.00038

B8: trmD L67W (protein)
chain: MWIGIISLFPEMFRAITDYGVTGRAVKNGLLSIQSWSPRDFTHDRHRTVDDRPYGGGPGMLMMVQPWRDAIHAAKAAAGEGAKVIYLSPQGRKLDQAGVSELATNQKLILVCGRYEGIDERVIQTEIDEEWSIGDYVLSGGELPAMTLIDSVSRFIPGVLGHEASATEDSFAEGLLDCPHYTRPEVLEGMEVPPVLLSGNHAEIRRWRLKQSLGRTWLRRPELLENLALTEEQARLLAEFKTEHAQQQHKHDGMA
fold change of barcode share [1]: 0.229 ± 0.0063
fold change of barcode share [2]: < 0.00258

B9: trmD L67P (protein)
chain: MWIGIISLFPEMFRAITDYGVTGRAVKNGLLSIQSWSPRDFTHDRHRTVDDRPYGGGPGMLMMVQPPRDAIHAAKAAAGEGAKVIYLSPQGRKLDQAGVSELATNQKLILVCGRYEGIDERVIQTEIDEEWSIGDYVLSGGELPAMTLIDSVSRFIPGVLGHEASATEDSFAEGLLDCPHYTRPEVLEGMEVPPVLLSGNHAEIRRWRLKQSLGRTWLRRPELLENLALTEEQARLLAEFKTEHAQQQHKHDGMA
fold change of barcode share [1]: 1.46 ± 0.1
fold change of barcode share [2]: 0.0467 ± 0.054

B10: tilS I152W (protein)
chain: MTLTLNRQLLTSRQILVAFSGGLDSTVLLHQLVQWRTENPGVALRAIHVHHGLSANADAWVTHCENVCQQWQVPLVVERVQLAQEGLGIEAQARQARYQAFARTLLPGEVLVTAQHLDDQCETFLLALKRGSGPAGLSAMAEVSEFAGTRLWRPLLARTRGELVQWARQYDLRWIEDESNQDDSYDRNFLRLRVVPLLQQRWPHFAEATARSAALCAEQESLLDELLADDLAHCQSPQGTLQIVPMLAMSDARRAAIIRRWLAGQNAPMPSRDALVRIWQEVALAREDASPCLRLGAFEIRRYQSQLWWIKSVTGQSENIVPWQTWLQPLELPAGLGSVQLNAGGDIRPPRADEAVSVRFKAPGLLHIVGRNGGRKLKKIWQELGVPPWLRDTTPLLFYGETLIAAAGVFVTQEGVAEGENGVSFVWQKTLS
fold change of barcode share [1]: 0.248 ± 0.033
fold change of barcode share [2]: 0.00249 ± 0.0016

B11: tilS I152Q (protein)
chain: MTLTLNRQLLTSRQILVAFSGGLDSTVLLHQLVQWRTENPGVALRAIHVHHGLSANADAWVTHCENVCQQWQVPLVVERVQLAQEGLGIEAQARQARYQAFARTLLPGEVLVTAQHLDDQCETFLLALKRGSGPAGLSAMAEVSEFAGTRLQRPLLARTRGELVQWARQYDLRWIEDESNQDDSYDRNFLRLRVVPLLQQRWPHFAEATARSAALCAEQESLLDELLADDLAHCQSPQGTLQIVPMLAMSDARRAAIIRRWLAGQNAPMPSRDALVRIWQEVALAREDASPCLRLGAFEIRRYQSQLWWIKSVTGQSENIVPWQTWLQPLELPAGLGSVQLNAGGDIRPPRADEAVSVRFKAPGLLHIVGRNGGRKLKKIWQELGVPPWLRDTTPLLFYGETLIAAAGVFVTQEGVAEGENGVSFVWQKTLS
fold change of barcode share [1]: 0.361 ± 0.11
fold change of barcode share [2]: 0.00578 ± 0.0021

B12: tilS I152P (protein)
chain: MTLTLNRQLLTSRQILVAFSGGLDSTVLLHQLVQWRTENPGVALRAIHVHHGLSANADAWVTHCENVCQQWQVPLVVERVQLAQEGLGIEAQARQARYQAFARTLLPGEVLVTAQHLDDQCETFLLALKRGSGPAGLSAMAEVSEFAGTRLPRPLLARTRGELVQWARQYDLRWIEDESNQDDSYDRNFLRLRVVPLLQQRWPHFAEATARSAALCAEQESLLDELLADDLAHCQSPQGTLQIVPMLAMSDARRAAIIRRWLAGQNAPMPSRDALVRIWQEVALAREDASPCLRLGAFEIRRYQSQLWWIKSVTGQSENIVPWQTWLQPLELPAGLGSVQLNAGGDIRPPRADEAVSVRFKAPGLLHIVGRNGGRKLKKIWQELGVPPWLRDTTPLLFYGETLIAAAGVFVTQEGVAEGENGVSFVWQKTLS
fold change of barcode share [1]: 0.269 ± 0.0037
fold change of barcode share [2]: 0.00178 ± 0.0014

B13: tilS I152D (protein)
chain: MTLTLNRQLLTSRQILVAFSGGLDSTVLLHQLVQWRTENPGVALRAIHVHHGLSANADAWVTHCENVCQQWQVPLVVERVQLAQEGLGIEAQARQARYQAFARTLLPGEVLVTAQHLDDQCETFLLALKRGSGPAGLSAMAEVSEFAGTRLDRPLLARTRGELVQWARQYDLRWIEDESNQDDSYDRNFLRLRVVPLLQQRWPHFAEATARSAALCAEQESLLDELLADDLAHCQSPQGTLQIVPMLAMSDARRAAIIRRWLAGQNAPMPSRDALVRIWQEVALAREDASPCLRLGAFEIRRYQSQLWWIKSVTGQSENIVPWQTWLQPLELPAGLGSVQLNAGGDIRPPRADEAVSVRFKAPGLLHIVGRNGGRKLKKIWQELGVPPWLRDTTPLLFYGETLIAAAGVFVTQEGVAEGENGVSFVWQKTLS
fold change of barcode share [1]: 0.316 ± 0.096
fold change of barcode share [2]: 0.0053 ± 0.0015

B14: tmk I200A (protein)
chain: MRSKYIVIEGLEGAGKTTARNVVVETLEQLGIRDMVFTREPGGTQLAEKLRSLVLDIKSVGDEVITDKAEVLMFYAARVQLVETVIKPALANGTWVIGDRHDLSTQAYQGGGRGIDQHMLATLRDAVLGDFRPDLTLYLDVTPEVGLKRARARGELDRIEQESFDFFNRTRARYLELAAQDKSIHTIDATQPLEAVMDAARTTVTHWVKELDA
fold change of barcode share [1]: 0.126 ± 0.073
fold change of barcode share [2]: < 0.00743

B15: tmk V204A (protein)
chain: MRSKYIVIEGLEGAGKTTARNVVVETLEQLGIRDMVFTREPGGTQLAEKLRSLVLDIKSVGDEVITDKAEVLMFYAARVQLVETVIKPALANGTWVIGDRHDLSTQAYQGGGRGIDQHMLATLRDAVLGDFRPDLTLYLDVTPEVGLKRARARGELDRIEQESFDFFNRTRARYLELAAQDKSIHTIDATQPLEAVMDAIRTTATHWVKELDA
fold change of barcode share [1]: 0.211 ± 0.13
fold change of barcode share [2]: < 0.0121
